{"source": "paper PMC4336329", "about": "(PLoS ONE, 2015)", "note": "The campaign covered roughly 310,000 compounds. About 2,200 (0.71%) showed an effect of 50% or more. Effects have a minus sign here. This is one part of the list."}
{"molecular_target": "human ether-à-go-go-related gene (hERG) potassium channel (human, UniProt Q12809)", "sequence (Q12809 whole entry, looked up)": "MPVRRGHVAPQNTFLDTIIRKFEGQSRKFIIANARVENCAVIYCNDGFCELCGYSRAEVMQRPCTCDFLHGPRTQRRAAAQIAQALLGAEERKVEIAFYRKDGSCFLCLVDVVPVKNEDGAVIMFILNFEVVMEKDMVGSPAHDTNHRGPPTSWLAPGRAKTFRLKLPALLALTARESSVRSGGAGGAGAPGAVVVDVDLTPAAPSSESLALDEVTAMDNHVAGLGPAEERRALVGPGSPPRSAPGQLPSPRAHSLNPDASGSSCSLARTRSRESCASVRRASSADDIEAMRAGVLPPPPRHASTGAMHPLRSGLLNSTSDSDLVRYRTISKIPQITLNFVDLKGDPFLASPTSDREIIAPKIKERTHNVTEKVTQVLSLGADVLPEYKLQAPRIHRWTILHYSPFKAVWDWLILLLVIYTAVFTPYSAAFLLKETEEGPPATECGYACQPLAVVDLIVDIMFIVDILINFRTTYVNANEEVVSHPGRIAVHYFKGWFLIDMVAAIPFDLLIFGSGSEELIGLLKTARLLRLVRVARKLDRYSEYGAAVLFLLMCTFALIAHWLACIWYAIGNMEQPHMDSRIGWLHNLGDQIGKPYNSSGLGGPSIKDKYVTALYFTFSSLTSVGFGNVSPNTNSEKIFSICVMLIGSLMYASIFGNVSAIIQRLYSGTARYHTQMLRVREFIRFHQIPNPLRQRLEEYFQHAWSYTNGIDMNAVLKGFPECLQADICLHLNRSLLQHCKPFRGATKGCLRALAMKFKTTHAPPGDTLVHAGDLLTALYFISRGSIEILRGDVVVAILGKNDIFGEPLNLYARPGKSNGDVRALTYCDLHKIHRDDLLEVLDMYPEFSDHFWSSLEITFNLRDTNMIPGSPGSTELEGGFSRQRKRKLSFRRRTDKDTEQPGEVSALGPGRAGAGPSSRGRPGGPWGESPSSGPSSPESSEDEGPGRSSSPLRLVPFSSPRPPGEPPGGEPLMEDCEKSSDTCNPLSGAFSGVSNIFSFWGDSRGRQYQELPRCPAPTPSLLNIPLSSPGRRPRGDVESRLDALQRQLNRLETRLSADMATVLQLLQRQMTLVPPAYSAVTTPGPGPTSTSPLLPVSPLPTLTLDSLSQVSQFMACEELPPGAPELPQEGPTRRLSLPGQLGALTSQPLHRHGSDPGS", "experiment": "primary screen, population patch clamp on CHO cells stably expressing hERG", "units": {"hERG current change (%, negative = inhibition) at 1uM": "%"}}
{"smiles": "CC(=O)Nc1ccc(S(=O)(=O)N2CCSCC2)cc1", "hERG current change (%, negative = inhibition) at 1uM": 12.7}
{"smiles": "Br.Cc1ccc(C2=CSC3=NCCN23)cc1", "hERG current change (%, negative = inhibition) at 1uM": 11.3}
{"smiles": "Cc1cnn(Cc2cccnc2)c1N", "hERG current change (%, negative = inhibition) at 1uM": 13.6}
{"smiles": "Cc1ccc(C)c(S(=O)(=O)N2CCN(C(=O)CN3C(=O)NC(C)(C)C3=O)CC2)c1", "hERG current change (%, negative = inhibition) at 1uM": 12}
{"smiles": "Cc1cccc(C(=O)NNC(=O)c2ccc(S(=O)(=O)N3CCOCC3)cc2)c1", "hERG current change (%, negative = inhibition) at 1uM": 14.4}
{"smiles": "CCOc1ccc(Nc2nc(N3CCOCC3)nc(N3CCOCC3)n2)cc1", "hERG current change (%, negative = inhibition) at 1uM": 9.02}
{"smiles": "CC(=O)c1ccccc1NS(=O)(=O)c1cccc2nsnc12", "hERG current change (%, negative = inhibition) at 1uM": 11.5}
{"smiles": "CC1CCC(=O)N(CCC#N)CC1", "note": "(centres unmarked)", "hERG current change (%, negative = inhibition) at 1uM": -3.3}
{"smiles": "COc1ccc(N2CCN(C(=O)CCNS(=O)(=O)c3cccs3)CC2)cc1", "hERG current change (%, negative = inhibition) at 1uM": 0.22}
{"smiles": "CCOC(=O)/C(C#N)=C\\C1=C(N2CCOCC2)CC(C)(C)OC1", "hERG current change (%, negative = inhibition) at 1uM": 6.93}
{"smiles": "Cc1c(CN(C)C(=O)/C=C/c2ccc([N+](=O)[O-])cc2)cnn1C", "hERG current change (%, negative = inhibition) at 1uM": -65.5}
{"smiles": "CCOc1ccc(S(=O)(=O)NCc2csc(C)n2)cc1", "hERG current change (%, negative = inhibition) at 1uM": 3.95}
{"smiles": "O=C(Oc1nsnc1N1CCOCC1)N1CCCC1", "hERG current change (%, negative = inhibition) at 1uM": 9.57}
{"smiles": "O=C(NCCOC(=O)c1ccc(S(=O)(=O)N2CCOCC2)cc1)c1cccnc1", "hERG current change (%, negative = inhibition) at 1uM": -2.36}
{"smiles": "CN1CCN(NC(=O)c2cn(-c3ccccc3)nc2-c2ccc(OC(F)F)cc2)CC1.Cl", "hERG current change (%, negative = inhibition) at 1uM": 5.29}
{"smiles": "Cc1ccc(S(=O)(=O)N2CC(O)C[C@H]2C(=O)OCC(=O)Nc2ccc(N3CCCCC3)cc2)cc1C", "note": "(some centres unmarked)", "hERG current change (%, negative = inhibition) at 1uM": 5.47}
{"smiles": "c1cncc(-c2nn3c(Cn4nnc5ccccc54)nnc3s2)c1", "hERG current change (%, negative = inhibition) at 1uM": -8.94}
{"smiles": "Cc1ccc(C)c(-n2nnnc2SCC(=O)c2ccc3c(c2)NC(=O)CO3)c1", "hERG current change (%, negative = inhibition) at 1uM": 9.48}
{"smiles": "CCOC(=O)c1c(S(=O)(=O)Nc2cccc(Cl)c2)c(C)n(C)c1C", "hERG current change (%, negative = inhibition) at 1uM": 13.6}
{"smiles": "O=C(COc1ccc(Cl)cc1)NCCS(=O)(=O)N1CCN(c2ccccc2F)CC1", "hERG current change (%, negative = inhibition) at 1uM": 19.4}
{"smiles": "O=C(Cn1c2ccc(F)cc2c2nc3n(c(=O)c21)CCS3)NCC1CCCO1", "note": "(centres unmarked)", "hERG current change (%, negative = inhibition) at 1uM": 9.28}
{"smiles": "O=C(C1CCCO1)N(Cc1ccccc1)c1ccccc1", "note": "(centres unmarked)", "hERG current change (%, negative = inhibition) at 1uM": 1.69}
{"smiles": "CCN1CCN(Cc2c(O)ccc3c2O/C(=C\\C=C\\c2ccccc2)C3=O)CC1", "hERG current change (%, negative = inhibition) at 1uM": 13.4}
{"smiles": "O=S(=O)(Nc1ccc(N2CCOCC2)cc1)c1ccc(F)cc1F", "hERG current change (%, negative = inhibition) at 1uM": 4.78}
{"smiles": "O=C1CC(N2CCN(C(c3ccccc3)c3ccccc3)CC2)C(=O)N1", "note": "(centres unmarked)", "hERG current change (%, negative = inhibition) at 1uM": 6.97}
{"smiles": "COc1ccc(S(=O)(=O)NCCSc2ccccc2)cc1OC", "hERG current change (%, negative = inhibition) at 1uM": 7.31}
{"smiles": "COCCN1CCN(C(=O)c2cc(COc3cncc(Cl)c3)on2)CC1", "hERG current change (%, negative = inhibition) at 1uM": 7.46}
{"smiles": "CCc1cc(C(=O)OC)c(NC(=O)CSc2nccn2C)s1", "hERG current change (%, negative = inhibition) at 1uM": -1.72}
{"smiles": "S=P(Nn1cnnc1)(c1ccc(Br)cc1)c1ccc(Br)cc1", "hERG current change (%, negative = inhibition) at 1uM": 14.4}
{"smiles": "COc1ccc(S(=O)(=O)Cc2ccc(C(=O)N3CCc4ccccc4C3)o2)cc1", "hERG current change (%, negative = inhibition) at 1uM": -16.9}
{"smiles": "NC(=S)Cc1ccccc1Cl", "hERG current change (%, negative = inhibition) at 1uM": 8.98}
{"smiles": "CN(C)C(=S)NC1(C)CCS(=O)(=O)C1", "note": "(centres unmarked)", "hERG current change (%, negative = inhibition) at 1uM": 9.58}
{"smiles": "Cc1ccc(S(=O)(=O)CC(=O)Nc2sc(C)c(C)c2C(N)=O)cc1", "hERG current change (%, negative = inhibition) at 1uM": 11.8}
{"smiles": "Cc1ccc(NC(=O)c2cccnc2)cc1S(=O)(=O)N(C)C", "hERG current change (%, negative = inhibition) at 1uM": 3.05}
{"smiles": "CN(C)S(=O)(=O)c1cccc(C(=O)NCC2CCCCC2)c1", "hERG current change (%, negative = inhibition) at 1uM": 2.31}
{"smiles": "Cc1ccc2c(c1)NC(=O)C(CC(=O)NCc1ccc(F)cc1)O2", "note": "(centres unmarked)", "hERG current change (%, negative = inhibition) at 1uM": 1.15}
{"smiles": "CCOc1ccc(CN2CCNC(=O)C2CC(=O)NCCCC2CCCC2)cc1", "note": "(centres unmarked)", "hERG current change (%, negative = inhibition) at 1uM": -9.92}
{"smiles": "Cc1cccc(C(=O)N(C)c2nnc(-c3ccncc3)s2)c1", "hERG current change (%, negative = inhibition) at 1uM": 6.08}
{"smiles": "c1ccc2nc(-c3nc4ccccc4[nH]3)ccc2c1", "hERG current change (%, negative = inhibition) at 1uM": -0.486}
{"smiles": "CSCCC(NC(=O)c1ccccc1)C(=O)NCc1ccc(S(N)(=O)=O)cc1", "note": "(centres unmarked)", "hERG current change (%, negative = inhibition) at 1uM": 9.58}
{"smiles": "O=C(NNC(=O)C1CC1)c1ccccc1[N+](=O)[O-]", "hERG current change (%, negative = inhibition) at 1uM": 13}
{"smiles": "COc1cccc(-c2nc(-c3ccccc3)nc(N3CCN(C)CC3)c2C#N)c1", "hERG current change (%, negative = inhibition) at 1uM": 14.6}
{"smiles": "CC(Cc1ccccc1)Nc1ncnc2c1ncn2C1OC(CO)C(O)C1O", "note": "(centres unmarked)", "hERG current change (%, negative = inhibition) at 1uM": 5.21}
{"smiles": "COc1ccc2c(CC(=O)Nc3nnc(C4CC4)s3)coc2c1", "hERG current change (%, negative = inhibition) at 1uM": 10.1}
{"smiles": "CCOC(=O)c1c(NC(=O)CN(CC)CC)sc2c1CCN(C(=O)OCC)C2", "hERG current change (%, negative = inhibition) at 1uM": 0.777}
{"smiles": "C=CCNc1nc(-c2ccc([N+](=O)[O-])cc2)cs1", "hERG current change (%, negative = inhibition) at 1uM": 13}
{"smiles": "O=c1c2ccccc2nc2n1CCS2(=O)=O", "hERG current change (%, negative = inhibition) at 1uM": 17.7}
{"smiles": "Cc1nn(C)c(C(=O)NC(=S)Nc2ccccc2Br)c1Cl", "hERG current change (%, negative = inhibition) at 1uM": 10.3}
{"smiles": "CC1(c2ccccc2Cl)NC(=O)N(CC(=O)Nc2ccccc2OC(F)F)C1=O", "note": "(centres unmarked)", "hERG current change (%, negative = inhibition) at 1uM": 5.12}
{"smiles": "Cc1cc(-c2nnc(CCC(=O)N(C)C(C)c3cccs3)o2)no1", "note": "(centres unmarked)", "hERG current change (%, negative = inhibition) at 1uM": 10.9}
{"smiles": "CSc1nnc(CNC(=O)c2ccccc2)n1-c1ccc(F)cc1", "hERG current change (%, negative = inhibition) at 1uM": 15.4}
{"smiles": "O=C(CSc1nc(=O)n(CCCN2CCOCC2)c2c1CCC2)Nc1ccc([N+](=O)[O-])cc1", "hERG current change (%, negative = inhibition) at 1uM": -7.53}
{"smiles": "Cc1ccc(N2CCN(c3ccc(C)cc3)C(CC(=O)O)C2=O)cc1", "note": "(centres unmarked)", "hERG current change (%, negative = inhibition) at 1uM": 8.51}
{"smiles": "O=C(NC(NC(=S)Nc1ccc(Cl)cc1Cl)C(Cl)(Cl)Cl)c1cccc([N+](=O)[O-])c1", "note": "(centres unmarked)", "hERG current change (%, negative = inhibition) at 1uM": 4.11}
{"smiles": "Cc1cccn2c(=O)nc(SCC(=O)N3CCOCC3)nc12", "hERG current change (%, negative = inhibition) at 1uM": 11.4}
{"smiles": "COCCCNC1=C(Cl)C(=O)c2ccccc2C1=O", "hERG current change (%, negative = inhibition) at 1uM": 16.1}
{"smiles": "O=C(NCCOc1ccc(Cl)cc1)C(=O)NCC1CCCO1", "note": "(centres unmarked)", "hERG current change (%, negative = inhibition) at 1uM": 22.4}
{"smiles": "CCOC(=O)C1=C(N)OC2=C(C(=O)CCC2)C1c1sccc1C", "note": "(centres unmarked)", "hERG current change (%, negative = inhibition) at 1uM": 6.17}
{"smiles": "CCOC(=O)N1CCN(C(=O)c2ccccc2NC(=O)COc2ccccc2)CC1", "hERG current change (%, negative = inhibition) at 1uM": 8}
